Reference: PubChem BioAssay AID1240 (Sanford-Burnham Center for Chemical Genomics, 2008)
Screen size: about 50,000 compounds; about 800 (1.6%) showed an effect of 50% or more. The list shows a part of the results.

The compounds below were run against Bcl-2-like protein 10 (Homo sapiens) (UniProt Q9HD36) (assay: Phenotype converters, Bcl-B/TR3 peptide binding displacement, primary biochemical FP (AID 1240;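 note: 0% = Bcl-B with tracer peptide and DMSO and 100% = tracer peptide lacking Bcl-B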)). Conditions: GST-Bcl-B / FITC-TR3 peptide fluorescence polarization; stronger effect = higher value; compound at 3.75 mg/L.
UniProt Q9HD36, sequence (Q9HD36 whole entry, looked up): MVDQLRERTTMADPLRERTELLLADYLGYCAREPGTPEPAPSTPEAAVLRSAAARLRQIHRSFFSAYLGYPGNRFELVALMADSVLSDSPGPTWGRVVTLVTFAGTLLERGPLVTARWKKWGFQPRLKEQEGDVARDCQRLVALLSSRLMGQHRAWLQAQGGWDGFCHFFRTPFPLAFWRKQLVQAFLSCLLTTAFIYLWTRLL

Compared with `Cc1ccc(Cl)cc1NC(=O)Cc1ccccc1[N+](=O)[O-]`, `COc1ccc(NC(=O)c2ccccc2[N+](=O)[O-])cc1` is higher in displacement: 2.8% for the first, 4.9% for the second.

Going from `Cn1c(/C=C2/C(=O)N(Cc3ccccc3)c3ccccc32)nc2ccccc2c1=O` to `COc1cc(/C=c2/sc3nc4ccccc4n3c2=O)cc(Br)c1OCc1ccccc1`, the displacement rises from -8.1% to 1.8%.

Going from `O=C(Nc1ccc(Br)cc1)c1nc[nH]c1C(=O)O` to `O=C(Nc1ccc(Br)cc1)C1C2C3CCC(C3)C12` (stereo not drawn), the displacement rises from -2.1% to -1.2%.

First: COC(=O)C1=CNC=C(C(=O)OC)C1c1ccc(C(=O)OC)cc1
Second: COC(=O)c1ccc(C(=O)OC)c(NC(=O)COc2cc(C)ccc2C(C)C)c1
The displacement of the first is lower: -6.4% for the first, -1.3% for the second.

Compared with `COc1ccc(/C=C2/SC(N3CCOCC3)=NC2=O)cc1`, `COc1ccc(Br)cc1/C=C1\SC(N2CCCC2)=NC1=O` is lower in displacement: 19.1% for the first, -10.6% for the second.

First: NC(=O)c1ccccc1N=Cc1ccc([N+](=O)[O-])o1
Second: O=C(/C=C/c1ccc([N+](=O)[O-])o1)c1ccc(Br)cc1
The displacement of the first is lower: -6.5% for the first, 1% for the second.

Going from `Cc1ccccc1/C=C1/NC(=S)NC1=O` to `CC1S/C(=N/N=C/c2ccccc2)NC1=O` (stereo not drawn), the displacement rises from -6.2% to 0.3%.

First: NNC(=O)c1sc2cccc(Cl)c2c1Cl
Second: Cc1cc(C)c2sc(NC(=O)c3cccc(Cl)c3)nc2c1
The displacement of the first is lower: 2% for the first, 11.9% for the second.

Compared with `Cc1c(OC(C)C(=O)O)ccc2c(-c3ccccc3)cc(=O)oc12` (stereo not drawn), `COC(=O)c1ccc(COc2ccc3c(-c4ccccc4)cc(=O)oc3c2)cc1` is higher in displacement: 8.3% for the first, 12.1% for the second.

First: CS(=O)(=O)N1CCN(Cc2ccccc2Cl)CC1
Second: O=C(c1ccc2c(c1)OCO2)N1CCN(Cc2ccccc2)CC1
The displacement of the first is higher: 11% for the first, 1.9% for the second.

Going from `COc1ccc(N(CC(=O)Nc2ccc(I)cc2)S(C)(=O)=O)cc1` to `CSc1ccc(S(=O)(=O)N(CC(=O)N2CCOCC2)c2ccc(C)cc2)cc1`, the displacement falls from 13.1% to -8.3%.

First: CCOc1cccc(/C=N/NC(=O)c2cc(-c3cccc4ccccc34)n[nH]2)c1O
Second: CCOc1ccc(OC)cc1/C=N/NC(=O)c1ccc(C)cc1
The displacement of the first is lower: -17% for the first, 8.9% for the second.

Compared with `C=CCC(CC=C)(NC(=O)/C=C/c1cccc([N+](=O)[O-])c1)c1ccccc1`, `CC(=O)N(C)c1ccc(NC(=O)/C=C/c2ccccc2)cc1` is higher in displacement: -6.2% for the first, 16.1% for the second.

Compared with `CCc1c(C)c2ccc(OCC(C)=O)c(C)c2oc1=O`, `Cc1c(OCc2ccccc2F)ccc2c3c(c(=O)oc12)CCC3` is lower in displacement: -4.5% for the first, -5% for the second.

First: S=c1[nH]c2ccccc2n1CCOc1ccccc1
Second: Cc1cccc(OCc2n[nH]c(=S)n2-c2ccccc2)c1
The displacement of the first is lower: -13.2% for the first, 3.2% for the second.

First: COc1cccc(C(=O)NNC(=O)COc2ccc(C(C)(C)C)cc2)c1
Second: COc1cc(NC(=O)c2ccc(C(C)(C)C)cc2)c(OC)cc1Cl
The displacement of the first is higher: -7.4% for the first, -13.5% for the second.

Going from `C=CCn1c(-c2ccc(OCC)cc2)n[nH]c1=S` to `C=CCN1C(=O)/C(=C\c2ccc(OCc3ccc(Cl)cc3)cc2)SC1=S`, the displacement rises from -3.8% to 4.4%.

First: COc1cc(OC)c(OC)cc1CN1CCN(C2CCCC(C)C2)CC1 (stereo not drawn)
Second: COc1ccc(C(=O)O/N=C(\N)c2ccc(OC)c(OC)c2)cc1OC
The displacement of the first is higher: 2.7% for the first, -7% for the second.

First: Cc1ccc2c(c1)C1C=CCC1C(c1ccc([N+](=O)[O-])cc1)N2 (stereo not drawn)
Second: O=[N+]([O-])c1ccc(Cl)c(-n2ncnc2-c2ccc(Br)cc2)c1
The displacement of the first is higher: 12.2% for the first, -2.6% for the second.

Compared with `CCOc1ccc(S(=O)(=O)n2cnc(C)c2)c2ccccc12`, `CCOC(=O)CSc1cc(C)nc2ccccc12` is higher in displacement: -1.2% for the first, 2% for the second.

Going from `CC1=C(C(=O)OC(C)C)C(c2ccc(OCC(N)=O)cc2)NC(=S)N1` (stereo not drawn) to `CC1=C(C(=O)OC(C)C)C(c2ccc(Br)s2)NC(=O)N1C` (stereo not drawn), the displacement falls from 7.3% to -13.8%.

Going from `O=C(Cc1ccc(F)cc1)NCC1CCCO1` (stereo not drawn) to `O=C(NCc1ccccc1)C1CCCCC1`, the displacement falls from 14.3% to -10.2%.

Compared with `O=C(CN1C(=O)C2CC=C(Cl)CC2C1=O)N1CCCC1` (stereo not drawn), `O=C(Nc1ccccc1)c1cc(S(=O)(=O)N2CCCCC2)ccc1Cl` is higher in displacement: -4.6% for the first, 5.3% for the second.

Compared with `O=c1/c(=C/C=C/c2ccccc2Cl)sc2nc3ccccc3n12`, `COC(=O)Cn1c(=N)n(Cc2ccccc2Cl)c2ccccc21` is lower in displacement: 3.6% for the first, -3.9% for the second.

Going from `CCOc1cccc(-c2cc(C(=O)Nc3nnc(C)s3)c3ccccc3n2)c1` to `CCOc1cccc(-c2cc(C(=O)Nc3cc(C)ccn3)c3ccccc3n2)c1`, the displacement falls from 135% to 2%.

First: Cc1ccc(C)c(COc2ccc3c4c(c(=O)oc3c2)CCC4)c1
Second: CCOC(=O)c1c(C)oc2ccc(OCc3cccc(F)c3)cc12
The displacement of the first is lower: 7% for the first, 8.5% for the second.

First: O=C(Nc1ccc(Cl)cc1)c1ccc(N2CCCCCC2)c([N+](=O)[O-])c1
Second: COc1ccc(Cl)cc1C(=O)Nc1ccc(F)cc1
The displacement of the first is higher: 12.5% for the first, 1.7% for the second.

Compared with `COc1cc2c(cc1NCc1ccc(OC)c(OC)c1OC)oc1ccccc12`, `COc1ccc(C2CC(=O)C3=C(C2)Nc2ccccc2NC3c2cc(Br)ccc2OC)cc1OC` (stereo not drawn) is lower in displacement: 11.2% for the first, 2.5% for the second.

Going from `O=[N+]([O-])c1ccc(-c2ccc(/C=N/Nc3nnc4c(n3)[nH]c3ccccc34)o2)cc1` to `O=[N+]([O-])c1cnc(Nc2ccc3ccccc3c2)nc1`, the displacement rises from 7.8% to 27.5%.

Going from `CC(C1CC1)N(C(=O)Nc1ccccc1Cl)c1ccccc1` (stereo not drawn) to `CC(=O)Nc1ccccc1NC(=O)c1ccccc1Cl`, the displacement falls from -4.5% to -8.7%.

First: NS(=O)(=O)c1ccc(NC(=O)c2ccc([N+](=O)[O-])o2)cc1
Second: Cc1ccc(NC(=O)CCN2C(=O)c3cccc4cccc(c34)C2=O)cc1
The displacement of the first is higher: 15.9% for the first, 11.4% for the second.

Compared with `CC(=O)Cc1oc2ccc(O)cc2c1[N+](=O)[O-]`, `CCC(=O)Oc1ccc2oc(=O)cc(C)c2c1` is higher in displacement: 13.2% for the first, 16.1% for the second.

Compared with `CCCCN(C)Cn1[nH]c(=O)ccc1=O`, `COc1ccc(OCCCCn2ccnc2)cc1` is higher in displacement: 1.2% for the first, 1.6% for the second.

Compared with `COc1ccc(O)c(/C=N/n2cnnc2)c1`, `COc1ccc(/C=N/OCC(=O)N=Nc2c(O)n(CN(C)C)c3ccc(Br)cc23)cc1` is lower in displacement: 15.1% for the first, -0.9% for the second.

Compared with `O=C(CCc1ccccc1)NC1C2CC3CC(C2)CC1C3` (stereo not drawn), `CC(C)(C)c1cc(Cc2ccccc2)no1` is higher in displacement: -11.5% for the first, 4.5% for the second.

Going from `COCC(=O)N/N=C(\C)CC(=O)Nc1cc(C)ccc1OC` to `COc1ccc(/C=C/C(=O)NC(=S)Nc2c(C)cc(C)cc2[N+](=O)[O-])cc1OC`, the displacement rises from -37.2% to -8%.

First: COc1ccc(-c2nc3sc(-c4ccc(OC)cc4)nc3s2)cc1
Second: CCOc1ccc(C(NC(=O)c2ccccc2OC)c2ccc(OC)cc2)cc1 (stereo not drawn)
The displacement of the first is higher: 0.3% for the first, -5% for the second.

Compared with `O=S(=O)(NCCNS(=O)(=O)c1ccccc1)c1ccccc1`, `O=C(Nc1ccc2nc(SCc3ccccc3)sc2c1)c1ccccc1` is higher in displacement: -3% for the first, 9.5% for the second.

Compared with `CCC(C)NCC(O)Cn1c2ccc(Cl)cc2c2cc(Cl)ccc21` (stereo not drawn), `COc1ccc(C(=O)Nc2ccc(I)cc2Cl)cc1OC` is lower in displacement: 13.4% for the first, -9.7% for the second.

First: COc1cc(/C=C2/SC(=S)N(c3ccccc3)C2=O)ccc1OC(=O)c1cccc(C)c1
Second: COc1ccc(C(=O)Nc2nc(-c3ccccc3)c(C)s2)cc1OC
The displacement of the first is higher: 9.4% for the first, -2.7% for the second.

Going from `Nc1ccc2nc(SCC(=O)NCc3ccco3)sc2c1` to `Cc1nnc(SCC(=O)Nc2c(C)n(C)n(-c3ccccc3)c2=O)s1`, the displacement falls from 8.7% to -6%.

First: O=C(CCC(=O)N/N=C/c1ccc(Cl)s1)N/N=C/c1ccc(Cl)s1
Second: O=C(O)CCCN1C(=O)/C(=C/c2c(F)cccc2Cl)SC1=S
The displacement of the first is lower: 5.9% for the first, 12.4% for the second.

Going from `Cc1ccc(O)c(NC(=O)c2cc3nc(-c4ccccc4)cc(C)n3n2)c1` to `Cc1ccc2nc(N3CCCCC3)nc(-c3ccccc3)c2c1`, the displacement rises from -2.1% to -0.8%.

Going from `COc1ccc(/C=N/NC(=O)c2ccoc2C)c(OC)c1OC` to `COC(=O)C1=C(C)NC2=C(C(=O)CC(c3ccc(OC)c(OC)c3)C2)C1c1ccc2c(c1)OCO2` (stereo not drawn), the displacement rises from -4.5% to 9.1%.

First: COc1ccc(C2C3=C(CC(C)(C)CC3=O)Nc3ccccc3N2C(=O)CC(C)C)cc1 (stereo not drawn)
Second: Cc1cc(=O)oc2cc(OC(=O)C(c3ccccc3)c3ccccc3)ccc12
The displacement of the first is lower: -16.5% for the first, 4.1% for the second.

Going from `Oc1ccccc1/C=N/Nc1ncnc2c1cnn2Cc1ccccc1` to `N/C(=N\OC(=O)c1ccccc1Br)c1cccnc1`, the displacement rises from -5.7% to 3.2%.

Going from `O=c1ccc(-c2nc3ccccc3[nH]2)n[nH]1` to `O=c1c2c(nc3cc(-c4cccc(F)c4)[nH]n13)CCC2`, the displacement rises from -0.5% to 5.3%.

Going from `COc1ccc(/C=C(\C#N)C(=O)NC(=O)Nc2cccc(Cl)c2)cc1` to `N#C/C(=C\c1ccccc1)C(=O)Nc1sc2c(c1C(N)=O)CCCC2`, the displacement falls from 1.1% to -7.2%.

Going from `N#Cc1c(SCC(=O)c2cccs2)nc2c(c1-c1ccncc1)CCCC2` to `Cc1ccc(C#N)c(SCC(=O)O)n1`, the displacement falls from 3.4% to -1.7%.

First: COc1ccc(/C=C/C(=O)C(C)(C)O)cc1
Second: CC(C)(O)C#CC(O)c1ccccc1F (stereo not drawn)
The displacement of the first is higher: 14.2% for the first, -5.9% for the second.

First: COc1ccc(/C=C/C(=O)OCC(=O)c2cccc([N+](=O)[O-])c2)cc1S(=O)(=O)N1CCCCC1
Second: O=C(/C=C/c1ccc(Br)cc1)N1CCN(c2ccc([N+](=O)[O-])cc2)CC1
The displacement of the first is lower: -4.9% for the first, -0.9% for the second.

Compared with `COc1cc(C2C3=C(CC(C)(C)CC3=O)OC3=C2C(=O)CC(C)(C)C3)ccc1Oc1nc2c(c(=O)n(C)c(=O)n2C)n1C`, `CC(=O)N(Cc1ccc2c(c1)OCO2)C1CC(=O)N(c2cccc(Cl)c2)C1=O` (stereo not drawn) is higher in displacement: 1.4% for the first, 16% for the second.

Going from `OC(CN1CCOCC1)c1ccc(Br)cc1` (stereo not drawn) to `COc1ccc(NC2=NC3(CCCCC3)N=C(N)N2)cc1`, the displacement falls from -4.7% to -17.6%.

Compared with `O=C(O)/C=C/C(=O)NNC(=O)c1ccc(O)cc1`, `CCCOC(=O)c1ccc(NC(=S)Nc2ccccc2)cc1` is lower in displacement: 6.5% for the first, -10.1% for the second.

Compared with `O=C(CN1C(=O)/C(=C/c2ccccc2)SC1=S)Nc1nccs1`, `O=C(O)CCCCCN1C(=O)/C(=C2/C(=O)N(CC(=O)O)c3ccccc32)SC1=S` is lower in displacement: 8.7% for the first, -4.5% for the second.

Going from `NC(=O)c1cc2nc(-c3cccs3)cc(C(F)(F)F)n2n1` to `CCOC(=O)c1c(NC(=O)CSc2ncnc3sc4c(c23)CCCC4)sc2c1CCCC2`, the displacement falls from 5.6% to 4.1%.

For `CC(C)(O)C#Cc1ccc(C(=O)NC(c2ccccc2)c2ccccc2)cc1`, the displacement was -1.7%.
